{"source": "PubChem BioAssay (NCI)", "note": "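Five compound concentrations were applied to cells in 96-well plates for 48 hours; endpoints were derived by simple linear interpolation of the resulting dose-response curve. The concentration for 50% growth inhibition is given as GI50. At the TGI there is no net growth.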", "data": [{"test_system": "NCI-H322M lung", "assay": "NCI anticancer screen, dose series, 48 h", "units": {"TGI": "µM", "GI50": "µM"}, "values": [{"smiles": "Cc1ccc(S(=O)(=O)N(/N=C/C=C/c2ccccc2)c2nnc(-c3ccccc3)c(-c3ccccc3)n2)cc1", "TGI": 83.5}, {"smiles": "CCOC(=O)C(Br)(C(N)=O)C1(O)OC(c2ccccc2)=C(Br)C1=O", "note": "(stereo unspecified)", "TGI": "> 100"}, {"smiles": "CCn1c(=O)nc2n(-c3ccccc3)c3ccccc3nc-2c1=O", "TGI": "> 100"}, {"smiles": "CC(C)(C)C(=O)OCCNc1nc(-c2ccccc2)nc2ccccc12", "TGI": 15.4}, {"smiles": "C=CCNC(=S)/N=C\\C(C(=O)OCC)=C(/O)C(=O)OCC", "TGI": "> 100"}, {"smiles": "C[C@]12CCC(=O)C[C@H]1CCC(O)[C@@H]2Br", "note": "(stereo partly specified)", "TGI": "> 100"}, {"smiles": "O=C1CSC(c2cccc(Cl)c2)N1c1ccc(-n2c(-c3ccccc3)nc3ccccc3c2=O)cc1", "note": "(stereo unspecified)", "TGI": "> 100"}, {"smiles": "Oc1ccc(C=NCC2CCCN3CCCCC23)cc1", "note": "(stereo unspecified)", "TGI": "> 63"}, {"smiles": "Nc1nc(/C=C\\c2ccc([N+](=O)[O-])s2)nc(N2CCOCC2)n1", "GI50": 14.9, "TGI": 37.8}, {"smiles": "CCCCCC(/C=C/[C@@H]1[C@H]2CC(=O)O[C@H]2C[C@H]1N1CCOCC1)OC1CCCO1", "note": "(stereo partly specified)", "TGI": "> 100"}, {"smiles": "CCN(CC)c1ccc2cc3ccc(=[N+](CC)CC)cc-3oc2c1", "TGI": 18.3}, {"smiles": "c1ccc(C2N=NN(c3ccccc3)C2N2CCCCC2)cc1", "note": "(stereo unspecified)", "TGI": "> 100"}, {"smiles": "C=C(C)c1nc(C#N)c(N)o1", "TGI": "> 100"}, {"smiles": "CN(C)CCCNC(=O)c1cccc2ccccc12", "TGI": "> 100"}, {"smiles": "COc1ccc(NC(=S)Nc2ccccc2)cc1", "TGI": "> 100"}, {"smiles": "Cc1ccc(N2CN3OC(=O)N(c4ccccc4)[C@@]3(c3ccccc3)C2)cc1", "TGI": "> 100"}, {"smiles": "COC1(OC)CC2CCCCC2=C(C)N1S(=O)(=O)c1ccccc1", "note": "(stereo unspecified)", "TGI": "> 100"}, {"smiles": "O=C1CCCC/C1=C(\\Br)I", "TGI": 32.8}, {"smiles": "COc1cc2c(cc1O)CC[C@@H]1[C@@H]2CC[C@]2(C)[C@@H](OCCCN(C)C)CC[C@@H]12", "GI50": 0.357, "TGI": 1.03}, {"smiles": "O=C(c1cccc(F)c1F)N1CCc2c([nH]c3ccccc23)C1c1ccc2c(c1)OCO2", "note": "(stereo unspecified)", "TGI": 66}, {"smiles": "C(CCCCc1nnc(N2CCOCC2)o1)CCCc1nnc(N2CCOCC2)o1", "TGI": "> 100"}, {"smiles": "COC1CC(Br)(C#N)C1", "note": "(stereo unspecified)", "TGI": "> 100"}, {"smiles": "OC1c2[nH]c3ccccc3c2CCN2CCCCC12", "note": "(stereo unspecified)", "TGI": "> 100"}, {"smiles": "COc1ccc(C(=O)c2cc(OC)c(OC)c(OC)c2)cc1OC(=O)C(Cl)(Cl)Cl", "GI50": 0.0846, "TGI": "> 100"}, {"smiles": "COc1ccc2c(c1)N=C(N)n1c(nc3ccccc31)S2", "TGI": "> 100"}, {"smiles": "CN(C)c1ccc(/C=C(\\NC(=O)c2ccccc2)C(=O)Nc2ccccc2C(=O)NCc2ccccc2)cc1", "TGI": "> 100"}, {"smiles": "O=C(Nc1ccc(F)cc1F)c1cc(F)ccc1O", "GI50": 2.83, "TGI": "> 100"}, {"smiles": "CC1(C)Cc2c(c3ccccc3c3nc4c(nc23)c2c(c3ccccc34)OC(C)(C)C2)O1", "TGI": "> 100"}, {"smiles": "CC1=C(Cc2ccccc2)C(Cc2ccccc2)=C(C)S1=O", "TGI": 77.8}, {"smiles": "C[C@@H](CO)C1=C(O)c2ccc3c(c2C(=O)C1=O)CCCC3(C)C", "TGI": "> 100"}, {"smiles": "O=C(O)/C=C\\C(=O)c1ccc(Cl)cc1", "TGI": "> 100"}, {"smiles": "COC(=O)C1=C(C(=O)OC)SC(=C(Cl)C(=S)Oc2ccccc2N)S1", "GI50": "> 50", "TGI": "> 50"}, {"smiles": "O=C(CCN1CCOCC1)c1ccc(Oc2ccc(F)cc2)cc1", "TGI": "> 100"}, {"smiles": "NC(=S)C1=C(N)Oc2c(c(=O)oc3ccccc23)C1c1ccc(Br)cc1", "note": "(stereo unspecified)", "TGI": "> 100"}, {"smiles": "OCCCCOC(c1ccccc1)(c1ccccc1)c1ccccc1", "TGI": "> 100"}, {"smiles": "C=CCN(N=O)C(=O)NCCCC(NC(C)=O)C(=O)NCc1ccccc1", "note": "(stereo unspecified)", "TGI": "> 100"}, {"smiles": "CCN(CC)CC1CCCCN1CC(=O)N1c2ccccc2NC(=O)c2ccccc21", "note": "(stereo unspecified)", "TGI": "> 100"}, {"smiles": "C[C@]12CC[C@H]3[C@@H](CCC4=C[C@@H](N5CCCC5)CC[C@@]43C)[C@@H]1C/C(=C\\c1ccncc1)[C@@H]2O", "TGI": 27.5}, {"smiles": "COc1cc(OC)c2nc3occc3c(OC)c2c1", "TGI": "> 100"}, {"smiles": "O=C1c2c(c(-c3ccccc3)c(-c3ccccc3)c(-c3ccccc3)c2-c2ccccc2)C(=O)N1c1cccc(Br)c1", "TGI": "> 100"}, {"smiles": "CC12CCCCC1C(=O)C2(Cl)Cl", "note": "(stereo unspecified)", "TGI": 13.9}]}]}
